Test results taken from PubChem BioAssay AID1345083 (National Center for Advancing Translational Sciences (NCATS), 2018).
Among all 94,000 compounds or so, about 6,200 (6.6%) were called active. Inconclusive means that the source gave no clear call. Such entries were picked first, then a sample of the others. The call rests on the fitted dose curve; in most records, active means well fitted inhibition curve with a large enough effect; inconclusive means small, poorly fitted or top-dose-only effect; inactive means flat fitted curve, though single readings scatter. Potencies beside an inconclusive call are fits to weak or partial responses and may not hold up.

experiment: Cytotoxic Profiling in HEK 293 Cell Line of Diverse Libraries Using Quantitative High-Throughput Screening; details: HEK 293 viability, ATP luminescence (CellTiter-Glo), 48-72 h; series mostly up to 115 µM; further: nearly all actives have a fitted effect of over 60% in size
From the text: Cell-based phenotypic screening is a commonly used approach to discover biological pathways, novel drug targets, chemical probes and high-quality hit-to-lead molecules. Many hits identified from high-throughput screening campaign are ruled out through a series of follow-up potency, selectivity/specificity, and cytotoxicity assays. Prioritization of molecules with little or no cytotoxicity for a more in-depth downstream evaluation influence the future direction of projects, so cytotoxicity profiling of the screening libraries at early stage is essential for increasing the likelihood of candidate success. In this study, we analyzed results from a cell-based cytotoxicity screening campaign, comprising nearly 10,000 compounds in NCATS annotated libraries, and over 100,000 compounds in a diversity library, evaluated in four normal cell lines (HEK 293, NIH 3T3, CRL-7250 and HaCat) and a cancer cell line (KB 3-1, a HeLa subline) with overall screening outcomes, hit rates, pan-activity and selectivity. For the annotated library, we also examined the primary targets and mechanistic pathways regularly associated with cell death. To our knowledge, this is the first study to use high-throughput screening to profile large libraries for cytotoxicity assessment in both normal and cancer cell lines. In summary, the results generated here constitutes a valuable resource for the scientific community and provides insight on identifying cytotoxic compounds with particular mechanisms of action, and prioritizing compounds with suitable cytotoxicity profile for further evaluation.
HEK 293 cells were seeded into white 1536-well plates using a Multidrop Combi peristaltic dispenser (ThermoFisher, Waltham, MA) at a density of 250 cells/well in 5 uL of medium respectively. A pintool (Kalypsys) was used to transfer 23 nL of compound solution to the 1536-well assay plates. After 48 or 72 hr incubation at 37 degree Celsius, 5% CO2 and 95% humidity, 2.5 uL of CellTiter-Glo (Promega) was dispensed into each well using a dispenser (Aspect Automation, St. Paul, MN) with solenoid valves (Lee Valves, Westbrook CT). Plates were left at room temperature for 10 min before imaging the ATP-coupled luminescence using a ViewLux microplate imager (PerkinElmer, Waltham, MA).
Potency means the concentration at half of the fitted maximal effect; tags describe the fitted curve by direction and shape.

Compound	Potency
N#Cc1cccc(-c2ccc3n(c2=O)C[C@H]2C[C@@H]3CN(C(=O)CSCC(=O)O)C2)c1	inactive
COCC1CN(Cc2cccnc2)CC12CCNCC2 (centres undefined)	inactive
O=c1ccc(-c2ccccc2F)c2n1C[C@H]1C[C@@H]2CN(Cc2ccc(CO)o2)C1	inconclusive: 126 µM [inhibitor, single point]
COc1ccc(S(=O)(=O)NC[C@H]2C[C@@H]3CCN2C[C@@H]3CN2CCc3ccccc32)cc1	active: 28.2 µM
CCc1cnc(N2CCC3(CC2)C(=O)Nc2cc(OC4CCCC4)c(OC)cc23)nc1	active: 79.4 µM
COc1ccccc1-c1cc([C@H]2CN3CC[C@H]2C[C@@H]3COC(=O)NC(C)C)nc(C)n1	inconclusive: 63.1 µM [inhibitor, full curve, poor fit]
Cc1nc(-c2ccc(N(C)C)cc2)cc([C@H]2CN3CC[C@H]2C[C@@H]3CNC(=O)C2CCC2)n1	inconclusive: 70.8 µM [inhibitor, full curve, poor fit]
CC[C@H]1CN2CC[C@H]1C[C@@H]2CNC(=O)c1ccc2c(c1)OCO2	inactive
COc1ccc2c(c1)C1(CCN(C(=O)c3ccc(C)cc3)C1)C(=O)N2 (centres undefined)	inconclusive: 89.1 µM [inhibitor, single point]
CCC1(N2CCN(C(=O)Cc3c[nH]c4ccccc34)CC2)CCN(S(C)(=O)=O)C1 (centres undefined)	inactive
O=C(C1CCOCC1)N1CCC2(CC1)NCc1ccccc1-n1ccnc12	inactive
COc1cc2c(cc1OC1CCCC1)NC(=O)C21CCN(c2ncc(F)cn2)CC1	active: 89.1 µM
COc1ccc(CCC(=O)N2CCC3(CC2)NCc2ccccc2-n2ccnc23)cc1	inconclusive: 89.1 µM [inhibitor, partial curve, poor fit]
CCC(CC)c1cc([C@H]2CN3CC[C@H]2C[C@@H]3CNS(=O)(=O)Cc2ccccc2)nc(-c2ccncc2)n1	active: 31.6 µM
Cc1cc2c(N3CCC(N4C[C@@H]5CCN[C@@H]5C4)CC3)ncnc2s1	inconclusive: 79.4 µM [inhibitor, single point]
COc1cc2c(cc1OC1CCCC1)NC(=O)C21CCN(c2nccs2)CC1	active: 89.1 µM
Cc1nc(-c2ccc(N(C)C)cc2)cc([C@H]2CN3CC[C@H]2C[C@@H]3COC(=O)Nc2ccccc2)n1	inconclusive: 14.1 µM [inhibitor, full curve, poor fit]
O=C1NC2(CCCN(Cc3cccnc3)C2)COc2ccccc21 (centres undefined)	active: 89.1 µM
CCCS(=O)(=O)NC[C@H]1C[C@@H]2CCN1C[C@@H]2c1cc(-c2cccs2)nn1C	inactive
